Assay results reported in PubChem BioAssay AID686979 (National Center for Advancing Translational Sciences (NCATS), 2013).
Screen size: about 420,000 compounds; about 50,000 (12%) were called active. The shares of active, inactive and inconclusive entries below differ from those in the screen. The call rests on the fitted dose curve; in most records, active means well fitted inhibition curve with a large enough effect; inconclusive means small, poorly fitted or top-dose-only effect; inactive means flat fitted curve, though single readings scatter. No potency is given beside an inconclusive call; the fits are too rough.

test: qHTS for Inhibitors of human tyrosyl-DNA phosphodiesterase 1 (TDP1): qHTS in cells in presence of CPT; settings: chicken DT40 Tdp1-/-;hTDP1 cells + 20 nM CPT, ATP luminescence, 48 h; activity change, negative = growth inhibition: at 46.2 µM (top of the series) unless noted; further: nearly all actives have a fitted effect of over 55% in size
Procedure, shortened: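 Chicken DT40 Tdp1-/- cells complemented with human TDP1, 400 cells/well, exposed to compounds plus 20 nM camptothecin for at least 48 h at 37 C; viability read as ATP content by CellTiter-Glo luminescence.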
On the % scale 0 is the no-effect control and ±100 the full control effect; potency means the concentration at half of the fitted maximal effect; tags describe the fitted curve by direction and shape.

SMILES	Potency	activity change, negative = growth inhibition
CC(C)CC(C(=O)OCC(=O)c1c(N)n(C)c(=O)n(C)c1=O)N1C(=O)C2CC=CCC2C1=O (stereo not drawn)	inconclusive [inhibitor, partial curve, poor fit]	
O=C(NCCOc1ccccc1)[C@@H]1CCCN1C(=O)c1cccs1		inactive: -27%
O=C(Nc1ccc2nc(-c3cccs3)c(-c3cccs3)nc2c1)N1CCCC1	inconclusive [inhibitor, single point]	
NC(=O)c1ccccc1NS(=O)(=O)c1ccc2c(c1)OCCO2		inactive: -7.72%
CC(C)(C)c1ccc(OCc2ccc(C(=O)NCc3cccnc3)o2)cc1	active: 20.6 µM	
CC(=O)Nc1ccc(NC(=O)C2Cc3c(-c4cccc(NC(C)=O)c4)ccnc3O2)cc1 (stereo not drawn)		inactive: -13%
O=C(CSCc1ccccc1)N1CCc2ccccc21		inactive: -9.01%
Cc1cc(NC(=O)Cn2nc3c(cc2=O)CCCC3)ccc1Br		inactive: -12.5%
CSc1nc(N)nc2c1ncn2Cc1ccccc1	inconclusive [inhibitor, single point]	
Cc1ccccc1CN(C)CC(=O)Nc1c(C)cccc1C(C)C	inconclusive [inhibitor, partial curve, poor fit]	
CCCCN(C)C(=O)CSc1c2c(nc3ccc(Cl)cc13)CCCC2	inconclusive [inhibitor, single point]	
COc1ccc(COC(=O)c2ccc(Cl)c(S(=O)(=O)N3CCOCC3)c2)cc1F	inconclusive [inhibitor, single point]	
CC(=O)c1ccc(C(=O)N2CCC(CO)(Cc3cccc(C(F)(F)F)c3)CC2)cc1	inconclusive [inhibitor, partial curve]	
CC(=O)NC1CC2CCCC(C1)N2C(=O)Nc1c(C)cccc1C (stereo not drawn)		inactive: 17%
COc1ccc(/C=C/C(=O)C23CC4CC(CC(C4)C2)C3)cc1CN1CCOCC1	inconclusive [inhibitor, single point]	
COc1ccc(C(=O)/C=C/Nc2ccc(S(=O)(=O)Nc3nc(C)cc(C)n3)cc2)cc1OC	inconclusive [inhibitor, single point]	
COc1ccc(NC(=O)Cn2c(=O)n(-c3ccccc3)c(=O)c3oc4ccccc4c32)c(OC)c1	inconclusive [inhibitor, single point]	
Cc1cccc(Cn2c(=O)n(-c3cc(C)cc(C)c3)c(=O)c3oc4ccccc4c32)c1	active: 8.2 µM	
Cc1ccccc1C(=O)Oc1cccc2c(O)cccc12	inconclusive [inhibitor, single point]	
COCCn1c(=O)[nH]c2cc(C(=O)N3CCN(Cc4ccc5c(c4)OCO5)CC3)ccc2c1=O		inactive: -29.6%
Cc1cc[n+](CC#N)cc1		inactive: -9.73%
Cn1cc(Cl)c(C(=O)OCC(=O)Nc2cccc(Cl)c2)n1		inactive: -10.9%

SMILES	Potency	activity change, negative = growth inhibition
COc1ccc(NC(C)=O)cc1NC(C)C(=O)Nc1ccc(F)cc1 (stereo not drawn)	inconclusive [inhibitor, single point]	
COc1cccc(CN2C(=O)NC(C)(C3CCN(Cc4cc(F)cc(F)c4)CC3)C2=O)c1OC (stereo not drawn)	inconclusive [inhibitor, single point]	
COc1ccc(S(=O)(=O)N2CCC(C(=O)N[C@H](C(=O)N3CCCCCC3)C(C)C)CC2)cc1	inconclusive [inhibitor, partial curve]	
NCCNc1ccc(C(=O)N2c3ccccc3Sc3ccccc32)cc1[N+](=O)[O-]	active: 18.4 µM	
CCOC(=O)c1cnc2c(OC)cccc2c1N1CCN(c2ccccn2)CC1	inconclusive [inhibitor, single point]	
Cc1nc2ccccc2c(=O)n1NC(=O)c1cccc([N+](=O)[O-])c1		inactive: 10.4%
COc1ccc(OC(F)(F)F)cc1CC1(C)C(=O)Nc2c(Cl)ccc(Cl)c21 (stereo not drawn)	inconclusive [inhibitor, single point]	
Cc1cccc(N2CCN(CCCNC(=O)Cn3ncc4c([nH]c5ccccc54)c3=O)CC2C)c1 (stereo not drawn)	inconclusive [inhibitor, single point]	
O=c1c2ccccc2nc(SCc2ccccc2)n1Cc1ccco1		inactive: -23.1%
Cc1ccc(Cl)cc1N1CCN(C(=O)C2CCN(S(=O)(=O)c3cn(C)cn3)CC2)CC1	inconclusive [inhibitor, single point]	
CCCNC(=O)C1(CC2CC(c3ccccc3)=NO2)CCN(C(=O)OC(C)(C)C)CC1 (stereo not drawn)	inconclusive [inhibitor, single point]	
CSc1nnc(Cn2c(=O)sc3ccccc32)n1-c1ccccc1	active: 20.6 µM	
Cc1cc(C)c2c(n1)nn1c(C)c(CCC(=O)Nc3cccc(C)c3C)c(C)nc21	active: 7.31 µM	
CCC(=O)N1CCCc2cc(S(=O)(=O)N3CCCc4ccccc43)ccc21	active: 25.9 µM	
CCC/C=C/c1ccc(CN2C(C)C(=O)N(Cc3cn(CCC4OCCCO4)nn3)CCS2(=O)=O)cc1 (stereo not drawn)	inconclusive [inhibitor, single point]	
Cc1ccc(-c2nc3cccc(C)n3c2Nc2ccc3c(c2)OCCO3)cc1	inconclusive [inhibitor, single point]	
CCOc1ccc(S(=O)(=O)NCCC(=O)N(C)Cc2cccs2)cc1		inactive: -23.7%
CC[C@@H](C)[C@@H](N)C1=N[C@H](C(=O)N[C@@H](CC(C)C)C(=O)N[C@@H](CCC(=O)O)C(=O)N[C@@H](C(=O)N[C@@H]2CCCCNC(=O)[C@@H](CC(N)=O)NC(=O)[C@@H](CC(=O)O)NC(=O)[C@@H](Cc3cnc[nH]3)NC(=O)[C@@H](Cc3ccccc3)NC(=O)[C@@H]([C@H](C)CC)NC(=O)[C@@H](CCCN)NC2=O)[C@@H](C)CC)CS1	inactive	
Cc1cc(C)n(-c2nc(NCc3cccnc3)c3c4c(sc3n2)COC(C)(C)C4)n1	inconclusive [inhibitor, single point]	
CCOc1ccc(CCNC(=O)COC(=O)c2ccc(F)c(S(=O)(=O)N3CCOCC3)c2)cc1OCC		inactive: 7.66%
CC(C)NC(=O)CSc1nnc(-c2ccc(C(C)(C)C)cc2)n1C	inconclusive [inhibitor, single point]	
